These results are taken from PMC12103069, “Structure predictions of MuRF1‐UBE2 complexes identify amino acid residues governing interaction selectivity for each MuRF1‐E2 pair” (The Febs Journal, 2025).

In the assay the target is T1, GST-MuRF1 (MuRF1 full length, TRIM63) (Rattus norvegicus, red fluorescent dye NT-647, covalently, by amine coupling).
T1 construct: MuRF1 / TRIM63, Rattus norvegicus, full length; Cloned in pGEX6P3; also called MuRF1FL; fluorescent MuRF1
As to the kind of experiment: other fluorescence titration; change in the initial fluorescence of dye-labelled GST-MuRF (10 nM, constant) with a 16-sample serial dilution of the E2; MonolithX (NanoTemper), premium capillaries, 100% MST power, 25 °C; 50 mM HEPES pH 7.4, 150 mM NaCl, 0.005% Tween20, 0.1% dextran. As to conditions: both partners purified.

A word on the Kd: it is the concentration at which binding is half-saturated. Low readings indicate a tighter complex, high ones a looser complex.

B1: UBE2L3 F63A (enzyme)
chain: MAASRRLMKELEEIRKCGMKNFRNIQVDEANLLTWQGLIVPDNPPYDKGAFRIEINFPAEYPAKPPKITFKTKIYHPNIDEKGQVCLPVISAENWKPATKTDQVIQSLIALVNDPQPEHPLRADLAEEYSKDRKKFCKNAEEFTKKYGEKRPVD
notes: UBE2L3, Mus musculus; source: mutated form synthesized by GeneCust; E. coli Rosetta (DE3), purified (Ni-NTA)
For the molecule B1, binding was characterised by a dissociation constant (Kd) of 6.9 µM.
